Reference: PubChem BioAssay (NCATS)
The inconclusive results got no clear call from the source; some entries with a clear call stand among them for comparison. For some assays here: A potency beside an inconclusive call is a rough fit, not a confirmed value. Active and inactive are the calls of the source. Unless noted, calls follow the shape of the dose curve; as a rule, active = well fitted curve in the direction sought with a large enough effect; inconclusive = small, poorly fitted or top-dose-only effect, or another doubt; inactive = no such curve, though single readings can be large; an effect the other way counts as inactive or inconclusive.

Legend:
[1] = Quantitative High-Throughput drug screen in 47 multiple myeloma cell lines against the NCATS MIPE library collection: PE2_PLB cell viability assay (AID 1919869); conditions: PE2_PLB myeloma cells viability, ATP luminescence, 48 h; viability (% of control): at 45.8 µM (top of the series);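 also: 100% = DMSO-only wells and 0% = cell-free media-only wells; nearly all actives have a fitted effect of over 35% in size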
Procedure, shortened: (§1)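 Inhibition of viability over 48 h was scored by ATP content (CellTiter-Glo) in 500-cell wells. Zero and full viability were defined by media-only and DMSO-only wells.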

[2] = Quantitative High-Throughput drug screen in 47 multiple myeloma cell lines against the NCATS MIPE library collection: KMS28BM_JCRB cell viability assay (AID 1919874); also: potency is read from the fitted curve at half-maximal effect; nearly all actives have a fitted effect of over 35% in size
Procedure, shortened: as §1

[3] = biological target: Rap guanine nucleotide exchange factor 3 (Homo sapiens) (UniProt O95398); assay: Confirmatory qHTS for antagonist of cAMP-regulated guanine nucleotide exchange factor 3 (EPAC1) (AID 1645880);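 also: plate controls were DMSO only for no effect and full effect of the ATA control for full effect; nearly all actives have a fitted effect of over 55% in size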
UniProt O95398, sequence (O95398 whole entry, looked up): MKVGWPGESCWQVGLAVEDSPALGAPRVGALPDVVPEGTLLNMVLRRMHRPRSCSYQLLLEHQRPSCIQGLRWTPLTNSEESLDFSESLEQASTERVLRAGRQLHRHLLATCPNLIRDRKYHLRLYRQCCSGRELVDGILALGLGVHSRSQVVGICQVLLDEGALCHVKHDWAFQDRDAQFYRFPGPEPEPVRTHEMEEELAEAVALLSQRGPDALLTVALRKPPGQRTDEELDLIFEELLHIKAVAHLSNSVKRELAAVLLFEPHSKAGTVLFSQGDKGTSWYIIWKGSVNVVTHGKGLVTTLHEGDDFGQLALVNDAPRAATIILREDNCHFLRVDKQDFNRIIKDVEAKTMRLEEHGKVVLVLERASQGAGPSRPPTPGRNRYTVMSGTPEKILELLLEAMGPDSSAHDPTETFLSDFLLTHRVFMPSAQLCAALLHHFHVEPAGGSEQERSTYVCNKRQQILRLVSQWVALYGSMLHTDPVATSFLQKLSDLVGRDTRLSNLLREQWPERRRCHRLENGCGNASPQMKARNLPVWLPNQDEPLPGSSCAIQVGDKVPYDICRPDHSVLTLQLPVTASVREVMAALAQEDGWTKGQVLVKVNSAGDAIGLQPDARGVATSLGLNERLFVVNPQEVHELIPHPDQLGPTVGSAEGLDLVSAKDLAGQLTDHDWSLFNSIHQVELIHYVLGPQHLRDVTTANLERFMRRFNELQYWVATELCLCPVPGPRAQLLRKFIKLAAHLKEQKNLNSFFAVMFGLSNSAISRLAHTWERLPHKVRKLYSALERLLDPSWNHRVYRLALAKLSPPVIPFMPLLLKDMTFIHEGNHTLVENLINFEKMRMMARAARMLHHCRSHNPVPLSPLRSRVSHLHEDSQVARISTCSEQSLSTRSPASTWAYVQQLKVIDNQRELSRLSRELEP
Procedure, shortened: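 Nucleotide exchange uses 100 nM EPAC1, 250 nM RAP1B-BODIPY-GDP and 50 uM GDP, with compounds in a concentration-titration series. After 5 min at room temperature, fluorescence (480 nm ex/540 nm em) is read every 5 min for 30 min. Data are normalized to control ATA and DMSO.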

[4] = Cell Viability - Renal Proximal Tubule (AID 545); conditions: renal proximal tubule cells viability, primary cells of rat origin; at 91.7 µM (top of the series);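 also: cells exposed to compound for 40 hours; nearly all actives have a fitted effect of over 40% in size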
Procedure, shortened: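 Primary rat renal proximal tubule cells (1000/well) were treated with compounds for 40 hr at 37 °C in complete medium. Intracellular ATP was measured by CellTiter-Glo luminescence, and AC50 values came from Hill-equation fits of concentration-response data.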

[5] = Cellular Toxicity (caspase-3) Hek293 (AID 664); conditions: HEK293 caspase-3 activation; caspase-3 activation: at 92.2 µM (top of the series), DMSO = 0%, 100 µM tamoxifen = 100%;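 also: cells exposed to compound for 16 h at 37 °C before readout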
Procedure, shortened: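 Cells plated, 5 hr at 37 °C; compounds added; 16 hr at 37 °C; Caspase-Glo 3/7 reagent, 20 min RT; luminescence read. Activation expressed relative to DMSO and 100 uM tamoxifen, AC50 by Hill model.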

[6] = Cell Viability - LYMP2-003 (AID 965); conditions: LYMP2-003 lymphoblastoid cell viability;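 also: potency is read from the fitted curve at half-maximal effect; cells exposed to compounds for 24 h before reading; nearly all actives have a fitted effect of over 50% in size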
Procedure, shortened: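 Human lymphoblastoid cells (2500/well) were pre-incubated 5 hr at 37 C, then exposed to compounds over a concentration range for 24 hr at 37 C. Intracellular ATP was read by CellTiter-Glo luminescence; AC50 came from Hill-equation fits.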

[7] = Cell Viability - LYMP2-009 (AID 968); conditions: LYMP2-009 lymphoblastoid cell viability; also: potency is read from the fitted curve at half-maximal effect; nearly all actives have a fitted effect of over 55% in size
[8] = Cell Viability - LYMP2-011 (AID 969); also: potency is read from the fitted curve at half-maximal effect; nearly all actives have a fitted effect of over 60% in size
Procedure, shortened: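 2500 cells/well, 5 hr 37 C; compound added, 24 hr 37 C; CellTiter-Glo 30 min RT; luminescence. qHTS concentration-response, Hill-equation AC50. Tetraoctylammonium bromide positive control.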

[9] = Cell Viability - LYMP2-013 (AID 970); conditions: LYMP2-013 lymphoblastoid cells viability; also: potency is read from the fitted curve at half-maximal effect; nearly all actives have a fitted effect of over 55% in size
Procedure, shortened: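 qHTS; 2500 lymphoblastoid cells/well; 5 hr 37 C settle; cpd 24 hr 37 C; CellTiter-Glo, 30 min RT; luminescence. AC50 = Hill fit.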

[10] = Cell Viability - LYMP2-015 (AID 971); conditions: LYMP2-015 lymphoblastoid cell viability; also: potency is read from the fitted curve at half-maximal effect; nearly all actives have a fitted effect of over 55% in size
Procedure, shortened: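 Luminescent ATP read-out (CellTiter-Glo) served as the viability measure after lymphoblastoid cells were exposed to compounds for 24 hours at 37 C. Concentration-response data were fitted with the Hill equation to give AC50.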

[11] = Cell Viability - LYMP2-019 (AID 973); conditions: LYMP2-019 lymphoblastoid cell line viability
Procedure, shortened: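 Luminescent ATP read-out (CellTiter-Glo, 30 min room temperature) served as the viability measure after 24 hr treatment of lymphoblastoid cells at 37 C. Concentration-response data were fitted to the Hill equation for AC50.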

[12] = Cell Viability - LYMP2-021 (AID 974); conditions: LYMP2-021 lymphoblastoid cells viability
Procedure, shortened: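 Plate 2500 lymphoblastoid cells per well and incubate 5 hr at 37 C. Add compounds over a concentration range and incubate 24 hr at 37 C. Add CellTiter-Glo, wait 30 min at room temperature, read luminescence.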

[13] = Cell Viability - LYMP2-023 (AID 975)
Procedure, shortened: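 2500 cells/well, 5 hr 37 C; cpd 24 hr 37 C; CellTiter-Glo, 30 min RT; luminescence. qHTS conc-response, Hill fit -> AC50. Pos ctrl tetraoctylammonium bromide.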

[14] = Cell Viability - LYMP2-002 (AID 977); conditions: LYMP2-002 lymphoblastoid cell viability, qHTS; activity change, negative = cytotoxic: at 92.2 µM (top of the series);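 also: compound exposure lasted 24 h at 37 °C; plate controls were DMSO only for no effect and 92 µM tetraoctylammonium bromide for full effect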
Procedure, shortened: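 Cytotoxicity is scored as concentration-dependent loss of cellular ATP in a human lymphoblastoid line after 24 hr compound treatment at 37 C. AC50 is obtained by modelling concentration-response data with the Hill equation.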

[15] = Cell Viability - LYMP2-006 (AID 978); conditions: LYMP2-006 lymphoblastoid cell viability, qHTS; also: potency is read from the fitted curve at half-maximal effect; nearly all actives have a fitted effect of over 60% in size
Procedure, shortened: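 Human lymphoblastoid cells, 2500 per well, were preincubated 5 hr at 37 C, then exposed to compounds for 24 hr at 37 C in complete medium. Viability was read as intracellular ATP by CellTiter-Glo luminescence; AC50 from Hill-equation fits of qHTS concentration-response data.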

[16] = Cell Viability - LYMP2-007 (AID 979); conditions: LYMP2-007 lymphoblastoid cell viability;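 also: potency is read from the fitted curve at half-maximal effect; cells exposed to compound for 24 h before reading; nearly all actives have a fitted effect of over 60% in size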
Procedure, shortened: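 Luminescent ATP signal (CellTiter-Glo) serves as the viability read-out after 24 hr compound treatment of lymphoblastoid cells in complete medium at 37 C. Concentration-response data were fitted to the Hill equation to give AC50 values.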

[17] = Cell Viability - LYMP2-008 (AID 980); also: potency is read from the fitted curve at half-maximal effect; nearly all actives have a fitted effect of over 60% in size
Procedure, shortened: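 qHTS, human lymphoblastoid line, 2500 cells/well; 5 hr preincubation, 24 hr compound, 37 C. CellTiter-Glo ATP luminescence. AC50 via Hill equation. Tetraoctylammonium bromide positive control.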

[18] = Cell Viability - LYMP2-016 (AID 984)
Procedure, shortened: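 Human lymphoblastoid cells (LYMP2-016), 2500/well in complete medium, preincubated 5 hr at 37 C, then compound-treated 24 hr at 37 C. Intracellular ATP read by CellTiter-Glo luminescence after 30 min at room temperature; AC50 from Hill-equation concentration-response fits.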

[19] = Cell Viability - LYMP2-018 (AID 985); conditions: LYMP2-018 lymphoblastoid cells, viability (qHTS);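 also: potency is read from the fitted curve at half-maximal effect; compound exposure lasted 24 hr at 37 °C; nearly all actives have a fitted effect of over 50% in size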
Procedure, shortened: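 Luminescent ATP signal (CellTiter-Glo, read after 30 min at room temperature) reports viable cells after 24 hr compound treatment at 37 C. Concentration-response data were fitted to the standard Hill equation for AC50.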

[20] = biological target: Estrogen receptor (Homo sapiens) (UniProt P03372); assay: qHTS assay for small molecule agonists of estrogen receptor alpha signaling (AID 588514; calls by dose curve; also: potency is read from the fitted curve at half-maximal effect; nearly all actives have a fitted effect of over 70% in size); conditions: ER-alpha-UAS-bla HEK293, beta-lactamase ratio, 18 h; activation: at 76.8 µM (top of the series), percent of full estradiol response, vehicle zero
UniProt P03372, sequence (P03372 whole entry, looked up): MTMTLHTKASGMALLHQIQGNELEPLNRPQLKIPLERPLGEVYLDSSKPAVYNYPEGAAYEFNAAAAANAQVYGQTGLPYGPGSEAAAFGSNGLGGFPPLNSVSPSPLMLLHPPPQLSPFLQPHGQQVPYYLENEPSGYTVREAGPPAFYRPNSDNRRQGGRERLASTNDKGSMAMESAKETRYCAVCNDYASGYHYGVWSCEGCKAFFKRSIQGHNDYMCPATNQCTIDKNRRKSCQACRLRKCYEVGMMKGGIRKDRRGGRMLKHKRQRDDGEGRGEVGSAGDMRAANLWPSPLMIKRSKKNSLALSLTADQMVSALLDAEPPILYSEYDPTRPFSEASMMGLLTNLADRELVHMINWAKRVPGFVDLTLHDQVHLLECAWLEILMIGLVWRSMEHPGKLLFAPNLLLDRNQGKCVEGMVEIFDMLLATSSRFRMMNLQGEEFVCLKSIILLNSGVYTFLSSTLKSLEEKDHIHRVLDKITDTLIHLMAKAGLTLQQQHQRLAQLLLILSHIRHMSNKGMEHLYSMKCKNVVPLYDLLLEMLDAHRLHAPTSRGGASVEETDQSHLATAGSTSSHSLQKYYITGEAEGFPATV
Procedure, shortened: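 Cells were plated at 5000/well, incubated 4 hrs at 37 C, dosed with compound titration series, incubated 18 hrs at 37 C, loaded with CCF4 dye for 2 hrs at RT, then fluorescence was read.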
Tags tell the direction and shape of the fitted curve or compound fluorescence and quenching.

CC(C)Cn1cnc2c(N)nc3ccccc3c21
inactive: Potency [1]
active: Potency [2] 14.8 µM

COc1ccc(C(Cl)=C(c2ccc(OC)cc2)c2ccc(OC)cc2)cc1
inactive: Potency [3]

CC(=O)OC/C=C(C)/C=C/C=C(C)/C=C/C1=C(C)CCCC1(C)C
active: Potency [10] 50.1 µM
inconclusive: activity change, negative = cytotoxicity [4] -44.2% | caspase-3 activation [5] 31.7% | Potency [6] 39.8 µM [cytotoxic, partial curve, poor fit] | Potency [7] 50.1 µM [cytotoxic, partial curve] | Potency [8] 79.4 µM [cytotoxic, single point] | Potency [9] 79.4 µM [cytotoxic, single point] | Potency [11] 39.8 µM [cytotoxic, partial curve] | Potency [12] 63.1 µM [cytotoxic, partial curve] | Potency [13] 79.4 µM [cytotoxic, partial curve, poor fit] | activity change, negative = cytotoxic [14] -31.3% [cytotoxic] | Potency [15] 50.1 µM [cytotoxic, partial curve, poor fit] | Potency [16] 50.1 µM [cytotoxic, partial curve] | Potency [17] 50.1 µM [cytotoxic, partial curve, poor fit] | Potency [18] 50.1 µM [cytotoxic, partial curve, poor fit] | Potency [19] 50.1 µM [cytotoxic, partial curve, poor fit] | Potency [20] 8.91 µM [activator, partial curve]
